In one assay the target is T1, recombinant human CD3 (human, UniProt P07766 23-126).
T1 construct: Bought protein; subunit make-up not described; also called hCD3
The assay can be described thus: ELISA, recombinant hCD3 coated. As for the experimental part:
(§1) ELISA was performed according to standard protocols. […] The plates were washed with PBS containing 0.05% Tween 20. […] The assay was developed at room temperature with TMB substrate (Sigma-Aldrich) and monitored at 450 nm with a microplate reader.

Assay [1] concerns the target T2, recombinant cynomolgus CD3 (cynomolgus, UniProt Q95LI5 22-117).
T2 construct: Bought protein; subunit make-up not described; also called cCD3
T2 sequence (looked up): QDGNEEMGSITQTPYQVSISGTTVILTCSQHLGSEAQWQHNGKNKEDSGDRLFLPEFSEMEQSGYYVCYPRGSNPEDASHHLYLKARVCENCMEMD
The assay can be described thus: ELISA, recombinant cCD3 coated. The procedure: as §1

In a further assay the target is T3, recombinant human EGFR (human, UniProt P00533 fragment).
T3 construct: Bought protein; construct not described; also called hEGFR
The assay is described as follows: ELISA, recombinant antigen coated. As for the experimental part:
as §1

In the next assay the target is T4, recombinant human HER4 (human, UniProt Q15303 26-649, limits assumed).
T4 construct: also called hHER4
T4 sequence (looked up): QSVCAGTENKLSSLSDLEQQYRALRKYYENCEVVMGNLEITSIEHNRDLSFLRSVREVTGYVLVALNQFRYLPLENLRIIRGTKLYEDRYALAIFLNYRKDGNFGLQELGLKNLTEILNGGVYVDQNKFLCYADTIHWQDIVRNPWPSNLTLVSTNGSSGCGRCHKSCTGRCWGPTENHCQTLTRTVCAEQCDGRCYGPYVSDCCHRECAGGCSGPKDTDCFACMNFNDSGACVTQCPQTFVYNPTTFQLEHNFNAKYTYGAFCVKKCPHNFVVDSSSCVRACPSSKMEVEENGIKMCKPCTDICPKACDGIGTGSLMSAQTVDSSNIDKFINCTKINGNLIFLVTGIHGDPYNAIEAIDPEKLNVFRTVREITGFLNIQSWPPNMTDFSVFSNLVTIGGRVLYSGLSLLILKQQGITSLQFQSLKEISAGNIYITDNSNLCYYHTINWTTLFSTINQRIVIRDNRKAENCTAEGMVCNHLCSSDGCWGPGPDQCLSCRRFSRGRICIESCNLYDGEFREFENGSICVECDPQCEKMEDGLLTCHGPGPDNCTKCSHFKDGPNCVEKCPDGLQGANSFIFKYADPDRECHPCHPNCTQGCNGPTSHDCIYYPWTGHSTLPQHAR
The assay can be described thus: ELISA, recombinant antigen coated. As for the experimental part: as §1

In assay [2] the target is T5, human EGFR on cells (HCT116, A549, A431, HT29) (human, UniProt P00533). The assay can be described thus: cell-based or functional assay.
In assay [3] the target is T5, human EGFR on cells (HCT116, A549, …). The assay is described as follows: flow cytometry on HCT116 cells, 2 µg/mL.

Positions count from the first letter of the chain named.

Chain of recombinant human CD3 (P07766 23-126): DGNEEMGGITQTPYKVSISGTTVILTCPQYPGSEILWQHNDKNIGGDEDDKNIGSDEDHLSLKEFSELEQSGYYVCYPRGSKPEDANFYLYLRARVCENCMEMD

B1: iBiTE-sp (EGFR×CD3, SMET5.2 scFv on hSP34 Fab-mFc7.2) (bispecific antibody)
heavy: EVQLVETGGGVVQPGRSLRLSCAASGFTFSSYAMHWVRQAPGKGLEWVAVISYDGSNKYYADSVKGRFTISRDNSKNTLYLQMNSLRAEDTAVYYCARGYVARGDFDYWGQGTLVTVSSGGGGSGGGGSGGGGSDVVMTQSPSTLSASVGDRVTITCRASQSMSRWLAWYQQKPGKGPKLLIYATSTLQSGVPSRFSGSGSGTEFTLTISSLQPEDFATYYCQQLDSFPFSFTFGPGTKVDLKGGGSSEVQLVESGGGLVQPGGSLRLSCAASGFTFNTYAMNWVRQAPGKGLEWVARIRSKYNNYATYYADSVKGRFTISRDDSKNTLYLQMNSLRAEDTAVYYCVRHGNFGNSYVSYFAYWGQGTTVTVSSASTKGPSVFPLAPSSKSTSGGTAALGCLVKDYFPEPVTVSWNSGALTSGVHTFPAVLQSSGLYSLSSVVTVPSSSLGTQTYICNVNHKPSNTKVDKKVEPKS[… human IgG1 Fc with T366L Y407H (EU numbers) …]
light: EIVVTQSPATLSVSPGERATLSCRSSTGAVTTSNYANWVQQKPGQAPRGLIGGANKRAPGVPARFSGSLSGDEATLTISSLQSEDFAVYYCALWYSNLWVFGQGTKLEIKRTVAAPSVFIFPPSDEQLKSGTASVVCLLNNFYPREAKVQWKVDNALQSGNSQESVTEQDSKDSTYSLSSTLTLSKADYEKHKVYACEVTHQGLSSPVTKSFNRGE[… human IgG1 Fc with T366L Y407H (EU numbers) …]
Take B1: the EC50 with recombinant human CD3 was found to be 1.3 nM; in assay [1], 1.6 nM. For the same molecule, the figures for the binding result in the assay with recombinant human EGFR and in the assay with recombinant human HER4 were “binds” and “no binding”, respectively.

B2: proBiTE-12 (protease cleavable bispecific T cell engager, EGFR×CD3, dual cleavable linker) (bispecific antibody)
heavy: EVQLVETGGGVVQPGRSLRLSCAASGFTFSSYAMHWVRQAPGKGLEWVAVISYDGSNKYYADSVKGRFTISRDNSKNTLYLQMNSLRAEDTAVYYCARGYVARGDFDYWGQGTLVTVSSGGGSSGGGGSGGGGSQVQLVQSGGGVVQPGRSLRLSCKASGYTFTRYTMHWVRQAPGKGLEWIGYINPSRGYTNYNQKVKDRFTISTDKSKSTAFLQMDSLRPEDTAVYYCARYYDDHYSLDYWGQGTTLTVSSASTKGPSVFPLAPSSKSTSGGTAALGCLVKDYFPEPVTVSWNSGALTSGVHTFPAVLQSSGLYSLSSVVTVPSSSLGTQTYICNVNHKPSNTKVDKKVEPKS[… human IgG1 Fc with T366L Y407H (EU numbers) …]
light: DVVMTQSPSTLSASVGDRVTITCRASQSMSRWLAWYQQKPGKGPKLLIYATSTLQSGVPSRFSGSGSGTEFTLTISSLQPEDFATYYCQQLDSFPFSFTFGPGTKVDLKGGGGSLSGRSDNHGPLGLARKDIQMTQSPSSLSASVGDRVTITCSASSSVSYMNWYQQTPGKAPKRWIYDTSKLASGVPSRFSGSGSGTDYTFTISSLQPEDIATYYCQQWSSNPFTFGQGTKLQITRTVAAPSVFIFPPSDEQLKSGTASVVCLLNNFYPREAKVQWKVDNALQSGNSQESVTEQDSKDSTYSLSSTLTLSKADYEKHKVYACEVTHQGLSSPVTKSFNRGE[… human IgG1 Fc with T366L Y407H (EU numbers) …]
Take B2: the “killing of HT29 cells (luciferase) with human PBMC, EC50” value (shortened to “killing of HT29 cells (luciferase)”) in assay [2] was roughly 0.006 nM.

B3: proBiTE-1s2 (bispecific antibody)
heavy: B2 heavy
light: DVVMTQSPSTLSASVGDRVTITCRASQSMSRWLAWYQQKPGKGPKLLIYATSTLQSGVPSRFSGSGSGTEFTLTISSLQPEDFATYYCQQLDSFPFSFTFGPGTKVDLKGSGGSRSDNHGGGGSDIQMTQSPSSLSASVGDRVTITCSASSSVSYMNWYQQTPGKAPKRWIYDTSKLASGVPSRFSGSGSGTDYTFTISSLQPEDIATYYCQQWSSNPFTFGQGTKLQITRTVAAPSVFIFPPSDEQLKSGTASVVCLLNNFYPREAKVQWKVDNALQSGNSQESVTEQDSKDSTYSLSSTLTLSKADYEKHKVYACEVTHQGLSSPVTKSFNRGE[… human IgG1 Fc with T366L Y407H (EU numbers) …]
notes: Variant of proBiTE-1, not sensitive to uPA
For B3, the binding result in assay [3] is on record as “binds”.

B4: proBiTE-1s1 (bispecific antibody)
heavy: B2 heavy
light: B3 light with G113S, S114G
notes: Variant of proBiTE-1
For B4, in assay [3], the binding result is recorded as “binds”.

B5: HBiTE (H-shaped bispecific T cell engager, EGFR×CD3, non-cleavable linkers) (bispecific antibody)
heavy: B2 heavy
light: B3 light with S111G, R115G, S116G, D117G, N118G, H119S
notes: also called H-shaped BiTE
As for B5, in assay [2], the “killing of HT29 cells (luciferase)” value worked out at 2 nM and the “killing of HT29 cells, fold less potent than iBiTE” value is roughly 300 fold.

B6: proBiTE-1s (bispecific antibody)
heavy: B2 heavy
light: B3 light with G112L, G113S, S114G
notes: Variant of proBiTE-1; also called proBiTE-ls
For B6, the binding result in assay [3] is “binds”.

B7: iBiTE (I-shaped bispecific T cell engager, EGFR×CD3) (bispecific antibody)
heavy: EVQLVETGGGVVQPGRSLRLSCAASGFTFSSYAMHWVRQAPGKGLEWVAVISYDGSNKYYADSVKGRFTISRDNSKNTLYLQMNSLRAEDTAVYYCARGYVARGDFDYWGQGTLVTVSSGGGGSGGGGSGGGGSDVVMTQSPSTLSASVGDRVTITCRASQSMSRWLAWYQQKPGKGPKLLIYATSTLQSGVPSRFSGSGSGTEFTLTISSLQPEDFATYYCQQLDSFPFSFTFGPGTKVDLKGGGSSGGGGSGGGGSQVQLVQSGGGVVQPGRSLRLSCKASGYTFTRYTMHWVRQAPGKGLEWIGYINPSRGYTNYNQKVKDRFTISTDKSKSTAFLQMDSLRPEDTAVYYCARYYDDHYSLDYWGQGTTLTVSSASTKGPSVFPLAPSSKSTSGGTAALGCLVKDYFPEPVTVSWNSGALTSGVHTFPAVLQSSGLYSLSSVVTVPSSSLGTQTYICNVNHKPSNTKVDKKVEPKS[… human IgG1 Fc with T366L Y407H (EU numbers) …]
light: DIQMTQSPSSLSASVGDRVTITCSASSSVSYMNWYQQTPGKAPKRWIYDTSKLASGVPSRFSGSGSGTDYTFTISSLQPEDIATYYCQQWSSNPFTFGQGTKLQITRTVAAPSVFIFPPSDEQLKSGTASVVCLLNNFYPREAKVQWKVDNALQSGNSQESVTEQDSKDSTYSLSSTLTLSKADYEKHKVYACEVTHQGLSSPVTKSFNRGE[… human IgG1 Fc with T366L Y407H (EU numbers) …]
notes: Two-chain heterodimer; also called i-shaped BiTE
Turning to B7, in assay [2], the “T cell activation (Promega bioassay, Jurkat NFAT-Luc2) with A431 cells, EC50” value was roughly 0.08 nM and the “killing of HT29 cells (luciferase)” value is roughly 0.006 nM.

B8: proBiTE-1s1sp (EGFR×CD3, SMET5.2 Fv on hSP34 Fab-mFc7.2, cleavable linker) (bispecific antibody)
heavy: EVQLVETGGGVVQPGRSLRLSCAASGFTFSSYAMHWVRQAPGKGLEWVAVISYDGSNKYYADSVKGRFTISRDNSKNTLYLQMNSLRAEDTAVYYCARGYVARGDFDYWGQGTLVTVSSGGGSSGGGGSGGGGSEVQLVESGGGLVQPGGSLRLSCAASGFTFNTYAMNWVRQAPGKGLEWVARIRSKYNNYATYYADSVKGRFTISRDDSKNTLYLQMNSLRAEDTAVYYCVRHGNFGNSYVSYFAYWGQGTTVTVSSASTKGPSVFPLAPSSKSTSGGTAALGCLVKDYFPEPVTVSWNSGALTSGVHTFPAVLQSSGLYSLSSVVTVPSSSLGTQTYICNVNHKPSNTKVDKKVEPKS[… human IgG1 Fc with T366L Y407H (EU numbers) …]
light: DVVMTQSPSTLSASVGDRVTITCRASQSMSRWLAWYQQKPGKGPKLLIYATSTLQSGVPSRFSGSGSGTEFTLTISSLQPEDFATYYCQQLDSFPFSFTFGPGTKVDLKGSGSGRSDNHGGGGSEIVVTQSPATLSVSPGERATLSCRSSTGAVTTSNYANWVQQKPGQAPRGLIGGANKRAPGVPARFSGSLSGDEATLTISSLQSEDFAVYYCALWYSNLWVFGQGTKLEIKRTVAAPSVFIFPPSDEQLKSGTASVVCLLNNFYPREAKVQWKVDNALQSGNSQESVTEQDSKDSTYSLSSTLTLSKADYEKHKVYACEVTHQGLSSPVTKSFNRGE[… human IgG1 Fc with T366L Y407H (EU numbers) …]
modifications: Biotinylated in the ELISA per paragraph 229; sites not stated.
Consider B8, for which the EC50 is 1.9 nM with recombinant human CD3 and 2.4 nM in assay [1].

The record behind these values is US20210388118A1 (ZHEJIANG SHIMAI PHARMACEUTICAL, published 2021).
